For orientation: stoichiometry N means the number of molecules, sites or subunits per partner or assembly.

The source of these data is paper PMC2289542 (The Journal of Cell Biology, 1992).

Values joined by “and” are separate entries in the source; they are usually repeats but may differ in a detail not shown here. Identical values can stand only once. Where only a bound is given, the exact number is not on record here.

Data set [1] deals with the molecule itself. As to the kind of experiment: cross-linking.
Data set [2] deals with the molecule itself. As to the kind of experiment: cross-linking. This is another data set of the same source.
The data set “electron microscopy” concerns the molecule itself. As to the kind of experiment: electron microscopy.
Data set [3] deals with the molecule itself. As to the kind of experiment: cross-linking. This is another data set of the same source.

B1: tau construct K12 (domain or fragment)
chain: not shown
In the case of B1, the “stoichiometry N” value in the data set “cross-linking [1]” is 2; in “cross-linking [2]” it was at least 2; in “electron microscopy” it was 4.

B2: tau construct K11 (domain or fragment)
chain: not shown
B2: the “stoichiometry N” value in “cross-linking [3]” is at least 2; in the data set “electron microscopy” it was 4 and 2.
